The other results are listed elsewhere or left out.

The subject of the experiment is T1, C. trachomatis L2/434/Bu expressing GFP (CTL2-GFP).
T1 construct: L2/434/Bu GFP intracellular growth in HeLa cells
On the set-up: species or system HeLa; C. trachomatis total inclusion area by high-content imaging, normalised to DMSO. To be noted: total inclusion area; 28.5 h, 10 µM; inhibitor. Summed up:
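Following bulk GFP and resorufin fluorescence reads, infected cells were fixed, Hoechst-stained and imaged on a high-content platform. Inclusion total area and number per well served as growth proxies; nuclei counts indicated host viability. MICs were derived as for the fluorescence assay.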
Regarding `Cc1cccc(Oc2nc3c(C)cccn3c(=O)c2/C=C(\C#N)c2nc3ccccc3[nH]2)c1` [CBK266528], the “% of control remaining” value is 116.874.

As for `O=C(NCCC(=O)N1CCCCC1)c1cccc(OCc2cscn2)c1` [CBK306384], the “% of control remaining” value was 60.7522. Then `Cc1nc(Nc2cccc(C3CCCN3C(=O)COc3ccc(F)cc3)n2)sc1C` (stereo not drawn) [CBK286019], with 98.0558; and `O=C(c1ccccc1)N1CCCC(c2nccnc2-c2cccc(C(F)(F)F)c2)C1` (stereo not drawn) [CBK286218], with 96.0155; and `COc1ccc(S(=O)(=O)N2CCN(C)CC2)cn1` [CBK269511], with 73.4424. The figure for `CC(C)c1noc(NCc2nnc3n2CCCCC3)n1` [CBK306352] is 52.7489; for `CC(C)(C)OC(=O)N1CCN(c2ccc(C(F)(F)F)c(Cl)n2)CC1` [CBK003030] it is 56.6923; for `N=C1OC2CSCC2N1C(=O)Cc1ccc(F)cc1` (stereo not drawn) [CBK284515] it is 76.0152. The figure for `COc1ccc(N2C(=O)CC(NNC(=O)CNC(C)=O)C2=O)cc1` (stereo not drawn) [CBK267228] is 107.243; for `CC(C)N1CCCC(CNC(=O)c2cc(C3CCCCC3)no2)C1` (stereo not drawn) [CBK283294] it is 91.236; for `CN1CCN(CCCCC2(C)SC(NC3CCCCCC3)=NC2=O)CC1` (stereo not drawn) [CBK113259] it is 87.0311.

Turning to `Cc1c(NC(=O)c2cn3c4c(c(N5CCN(C)CC5)c(F)cc4c2=O)OCN3C)c(=O)n(-c2ccccc2)n1C` [CBK263061], the “% of control remaining” value is recorded as 110.958. On to `O=C1CCC(=O)N1CCOc1nccnc1OC1CCN(Cc2ccc([N+](=O)[O-])cc2)CC1` [CBK084343], for which the “% of control remaining” value was determined as 93.498. Turning to `O=C(O)c1cccc(N2C(=O)C3C(C2=O)C2(c4ccccc4)C(=O)C3(c3ccccc3)C(c3ccccc3)=C2c2ccccc2)c1` (stereo not drawn) [CBK262439], the “% of control remaining” value was found to be 104.472.

As for `O=C(N1CCC(c2ccncc2)CC1)C1(c2ccccc2)CC1` [CBK285480], the “% of control remaining” value is recorded as 97.1098.

Turning to `C=CCn1c(Cc2csc(NC(=O)c3cccc(Cl)c3)n2)n[nH]c1=S` [CBK295314], the “% of control remaining” value stood at 107.547.

Take `COc1ccccc1CN(C(=O)Nc1ccc(S(C)(=O)=O)cc1)C1CC1` [CBK305787]: the “% of control remaining” value is on record as 12.1181. The figure for `CCCCc1nc(CS(=O)(=O)C(C)c2nc(C(C)C)no2)cs1` (stereo not drawn) [CBK305707] is 81.9555; for `CCOC(=O)C1CCCN(C(=O)Cn2ncc(Cl)c(Cl)c2=O)C1` (stereo not drawn) [CBK305573] it is 8.692; for `CS(=O)(=O)c1cccc(-c2cnc(NCC3CC3)c(C(=O)Nc3ccc4c(c3)OCO4)c2)c1` [CBK076362] it is 69.5786.

On to `O=C(c1ccco1)N1CCC(Cn2cncn2)(C2CCCCC2)CC1` [CBK136811], for which the “% of control remaining” value is 120.633. Then `CCC(=O)Nc1ccc(-c2nc3ccccc3[nH]2)cc1` [CBK287561], with 86.5444; and `O=C(NCc1cccs1)c1cnoc1-c1ccc([N+](=O)[O-])cc1` [CBK153845], with 97.6476; and `Cc1[nH]c(=S)[nH]c(=O)c1Cc1cccc2ccccc12` [CBK115563], with 66.009. The figure for `Cn1c(=O)c2c(nc(CN3CCCCC3)n2CCCc2ccccc2)n(C)c1=O` [CBK269521] is 82.3809. Then `O=C(O)CCC(=O)Nc1ccc(-c2nc3ccccc3o2)cc1` [CBK261330], with 82.8933; and `O=C(c1cccs1)N1CCCN(Cc2cn3ccccc3n2)CC1` [CBK305304], with 27.1452. On to `Fc1cccc(-c2nc3cnccn3c2NCc2cccs2)c1` [CBK282363], for which the “% of control remaining” value was found to be 107.891. The figure for `CC(C)(C)OC(=O)N1CCC2(CC1)NC(=O)c1cc(-c3cccc(S(C)(=O)=O)c3)ccc1O2` [CBK131967] is 74.5857; for `NC1=NN2C(=C(c3ccc(O)c(C(=O)O)c3)NN2c2ccccc2)N1` [CBK025631] it is 95.016. Then `O=S(=O)(Nc1ccc2[nH]ncc2c1)c1ccc(Oc2ccccc2)cc1` [CBK062522], with 74.5054; and `Cc1cc(-n2cccn2)ccc1CN1CCCCC1CN1CCOCC1` (stereo not drawn) [CBK307442], with 81.1762.

`N#Cc1ccc(CSc2cccc(F)c2)cc1` [CBK002918]: the “% of control remaining” value is given as 74.5336. Then `O=c1[nH][nH]c2nc(O)cc(C(F)(F)F)c12` [CBK027081], with 65.8146; and `O=C(c1nccs1)C1CCN(C(=O)CC2CCCC2)CC1` [CBK284207], with 82.0015; and `O=C(c1ccc(F)cc1)C1CCN(CC(O)COc2cccc3c2CCCC3)CC1` (stereo not drawn) [CBK003583], with 93.0149. In the case of `Cc1ccc(-c2n[nH]c(=S)n2CCC(=O)NCc2ccc(-c3csc(C)n3)s2)cc1` [CBK297924], the “% of control remaining” value is 102.036. The figure for `CSc1ncc(Cl)c(C(=O)NCCc2ccc(S(N)(=O)=O)cc2)n1` [CBK268679] is 102.976.

`CCc1ccc(CNC(=O)Cn2nnc(-c3ccc(CNC4CCC4)cc3)n2)cc1` [CBK155006T]: the “% of control remaining” value was determined as 127.146. Then `Cc1ccccc1NC(=O)CC(C(=O)O)N1CCOCC1` (stereo not drawn) [CBK266969], with 103.948; and `Cc1nc(C)c(CC(=O)Nc2cccc(CN3CCCC3)c2)s1` [CBK281426], with 92.638; and `CCN1C(=O)C2(CC(=O)N(CC3CCCCC3)C2=O)c2cc(C)ccc21` (stereo not drawn) [CBK075216], with 106.198.

Regarding `CC(C)C1c2cccn2CCN1S(=O)(=O)c1ccc2[nH]c(=O)[nH]c(=O)c2c1` (stereo not drawn) [CBK286391], the “% of control remaining” value came out at 65.3918.

Regarding `O=C(Nc1cccnc1)c1cc2cc(OC(F)(F)F)ccc2[nH]1` [CBK107313], the “% of control remaining” value is listed as 97.4642. The figure for `O=C(c1cccs1)N1C[C@H](c2ccc(F)cc2)[C@H]2CN(Cc3ccccc3)CC[C@H]21` [CBK285544] is 46.7013. Then `CN1CCN(c2nc(-c3ccccc3CO)cn3ccnc23)CC1` [CBK066347], with 56.5015; and `Cc1cc(C[C@@H]2CCC[C@H]2NCc2c(C)nn(C(C)C)c2C)on1` [CBK285453], with 77.4197.

In the case of `COc1ccc(F)c(CN(CC(C)(C)CN)C(=O)Nc2ccccc2C(C)(C)C)c1` [CBK002478C], the “% of control remaining” value was 39.729. As for `c1ccc2c(N3CCCCC3)cnnc2c1` [CBK066897], the “% of control remaining” value turned out to be 73.6193. The figure for `Cc1c(Cl)c(C(F)(F)F)nn1CCCNC(=S)Nc1ccc(S(N)(=O)=O)cc1` [CBK267113] is 89.7773; for `CCOC(=O)C1CCCN(CCC(=O)Nc2cc(C)ccc2C)C1` (stereo not drawn) [CBK264287C] it is 118.698. With `Cc1n[nH]c(-c2ccccc2NS(=O)(=O)c2cnn(C(C)C)c2)n1` [CBK306377], the “% of control remaining” value was found to be 80.3062.

With `COC(=O)[C@@H]1Cc2ncn(C)c2CN1S(=O)(=O)c1cccs1` [CBK288992], the “% of control remaining” value stood at 86.809. Consider `CC(C)Nc1cncc(SCCN(C)C)n1` [CBK105292], for which the “% of control remaining” value is reported as 101.167.

Turning to `C#CCNC(=O)C1CCN(c2nc3ccccc3n2C)CC1` [CBK283956], the “% of control remaining” value turned out to be 80.661.

Take `O=C(NCCc1cccnc1)C1CCCN(c2nc3c(-c4ccccc4)csc3c(=O)[nH]2)C1` (stereo not drawn) [CBK215495]: the “% of control remaining” value turned out to be 91.9156. For the compound `Cc1ccc(C)c(NC(=O)C(Cc2ccccc2)N2C(=O)c3cc(Cl)c(Cl)cc3C2=O)c1` (stereo not drawn) [CBK264232], the “% of control remaining” value is given as 97.7744. Then `Cc1cc(NS(=O)(=O)c2ccc(Br)cc2C(F)(F)F)n(C)n1` [CBK067255], with 93.5834; and `COc1cccc(NC(=O)C2CN(S(=O)(=O)c3ccccc3)CCN2S(=O)(=O)c2ccccc2)c1` (stereo not drawn) [CBK262694], with 102.288; and `Cc1ccc(C(=O)NNC(=O)/C=C\C(=O)O)cc1` [CBK261842], with 102.951.

Consider `COc1cccc(OCC(O)CN(C)S(=O)(=O)O)c1` (stereo not drawn) [CBK027121N], for which the “% of control remaining” value was 111.721. The figure for `O=C(O)c1ccc2c(c1)C(=O)N(C1=NCCS1)C2=O` [CBK021809] is 115.831.

Consider `O=S(=O)(Nc1cccc(-c2cnco2)c1)c1ccc(Br)cc1C(F)(F)F` [CBK067118], for which the “% of control remaining” value was determined as 102.884.

Consider `Cc1noc(C)c1S(=O)(=O)Nc1ccccc1C(=O)O` [CBK042371], for which the “% of control remaining” value is reported as 87.0994. The figure for `CC(=O)c1c(C(C)=O)c(C)n(-c2ccc(C(=O)O)cc2)c1C` [CBK287036] is 76.3343. Then `O=C(c1[nH]c2ccccc2c1NS(=O)(=O)Cc1ccccc1[N+](=O)[O-])N1CCOCC1` [CBK050079], with 99.2127; and `Cc1ccccc1-c1ccc(C(=O)NC2CCCCC2)c(NCc2cccnc2)n1` [CBK076159], with 90.9505. The figure for `Fc1ccc(COc2ccc(Cl)cc2CNCc2ccccn2)cc1` [CBK269899C] is 97.2005. Take `COC(=O)CCSc1nc(C)nc2c1c(=O)n(C)c(=O)n2CC(C)C` [CBK305891]: the “% of control remaining” value is 31.048.

Take `CN(C)c1ccc(-c2noc([C@@H]3CCCN3C)n2)cn1` [CBK288902]: the “% of control remaining” value is listed as 99.3908.

Regarding `CC(NC(=O)CCc1cn(C)c2ccccc12)c1ccccn1` (stereo not drawn) [CBK281889], the “% of control remaining” value was 80.3094.

For `CCN(CC)S(=O)(=O)c1csc(C(=O)Nc2cccc([N+](=O)[O-])c2)c1` [CBK264505], the “% of control remaining” value stood at 109.766. The figure for `Cc1cc(=O)oc2cc(OC(=O)C(Cc3ccccc3)N3C(=O)c4ccccc4C3=O)ccc12` (stereo not drawn) [CBK033943] is 97.3804; for `COC(=O)c1ccc(NC(=O)CN(c2ccc(F)c(Cl)c2)S(C)(=O)=O)cc1` [CBK267657] it is 88.7488. Then `Cc1cccc(-n2c(C#N)c(O)c3ccccc32)c1C` [CBK115319], with 89.1827; and `COc1ccc(C(NC(=O)Cn2cccnc2=O)C2CC(O)C2)cn1` (stereo not drawn) [CBK307527], with 64.1332. The figure for `Cc1ccccc1OCCNS(=O)(=O)c1cccc([N+](=O)[O-])c1` [CBK264195] is 126.912. Take `CC(=O)Nc1cc(Cl)ccc1OS(=O)(=O)c1ccc(Cl)cc1` [CBK264992]: the “% of control remaining” value worked out at 88.9608.

The values above are taken from publication PMC12040169 (PLOS Biology, 2025).
